Laboratory results reported in PubChem BioAssay AID360 (National Center for Advancing Translational Sciences (NCATS), 2006).
The campaign covered roughly 48,000 compounds. About 550 (1.1%) were called active. Not shown: some 4% with an inconclusive outcome. Rule as the data show it: active = potency below about 15 µM; inconclusive = mostly about 16 µM to 33 µM; inactive = weaker than that. The list shows a part of the results.

target: Lysosomal acid glucosylceramidase (Homo sapiens) (UniProt P04062); experiment: Glucocerebrosidase; details: purified enzyme, resorufin glucoside fluorescence (screen aimed at inhibitors), 20 min;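 also: the screen sought inhibitors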
Summary of the method: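 Compounds titrated against 0.2 nM normal enzyme, 30 uM resorufin beta-D-glucopyranoside substrate, citrate/phosphate buffer with taurocholate and tween-20, pH 5.9. Reaction ran 20 min at room temperature; fluorescence (Ex 548/Em 600) gave AC50.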
Potency is read from the fitted curve at half-maximal effect.

Chain of UniProt P04062 (P04062 whole entry, looked up): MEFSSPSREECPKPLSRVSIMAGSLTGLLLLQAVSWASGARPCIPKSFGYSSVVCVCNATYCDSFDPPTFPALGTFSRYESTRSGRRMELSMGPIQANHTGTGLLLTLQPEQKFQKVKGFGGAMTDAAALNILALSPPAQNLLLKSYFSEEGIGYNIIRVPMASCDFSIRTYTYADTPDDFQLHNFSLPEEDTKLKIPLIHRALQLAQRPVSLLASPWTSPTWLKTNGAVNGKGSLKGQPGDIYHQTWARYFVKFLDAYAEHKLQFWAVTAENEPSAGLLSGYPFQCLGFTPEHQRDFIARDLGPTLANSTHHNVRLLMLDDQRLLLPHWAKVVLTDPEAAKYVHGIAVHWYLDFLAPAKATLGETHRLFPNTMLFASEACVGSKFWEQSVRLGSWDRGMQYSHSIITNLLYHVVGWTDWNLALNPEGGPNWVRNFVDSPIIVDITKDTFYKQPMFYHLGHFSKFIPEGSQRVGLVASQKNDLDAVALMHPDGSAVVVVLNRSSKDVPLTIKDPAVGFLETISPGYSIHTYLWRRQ

Potency, inactive:
COC(=O)c1ccc(C(C(=O)NCc2ccccc2)N(Cc2ccco2)C(=O)c2cnccn2)cc1 (stereo not given) > 76.9 µM
COC(=O)CSc1nc2c(c(-c3ccco3)c1C#N)CCCC2 > 76.9 µM
O=C1CC(c2ccc3c(c2)OCO3)Sc2nc3ccccc3n21 (stereo not given) > 76.9 µM
O=S(=O)(c1ccccc1)N1CCN(Cc2cccc(Cl)c2)CC1 > 76.9 µM
CC1(C)CC(NC(=O)CC2CCCCC2)CC(C)(C)N1
CCCn1nnnc1SCC(=O)Nc1nnc(CC)s1 > 76.9 µM
COc1ccc(OC)c(-c2csc3nnc(SCC(=O)Nc4ccc(NC(C)=O)cc4)n23)c1 > 76.9 µM
CCc1[nH]nc2c1C(c1ccncc1)C(C#N)=C(N)O2 (stereo not given) > 76.9 µM
Cc1cccnc1NC(=O)Nc1cccc(C(F)(F)F)c1 > 76.9 µM
CCc1nc2oc3cc(OC)ccc3c(=O)c2c(=O)n1Cc1ccco1 > 76.9 µM
CC1CC(N(C(=O)C2CC2)c2ccccc2)c2ccccc2N1C(=O)C1CC1 (stereo not given) > 76.9 µM
NC(=O)COc1ccc2c3c(c(=O)oc2c1)CCCCC3 > 76.9 µM
O=S(=O)(NCc1ccc(Cl)cc1)c1cnc[nH]1 > 76.9 µM
O=C(NCc1ccccn1)c1c(O)c2cccc3c2n(c1=O)CC3 > 76.9 µM
Nc1ccc2c(c1)-c1ccccc1S(=O)(=O)N2 > 76.9 µM
O=C(CCc1nc2ccccc2[nH]c1=O)OCc1ccc(S(=O)(=O)N2CCOCC2)cc1 > 76.9 µM
Cc1ccc(NC(=O)CN(C)S(=O)(=O)c2cccs2)cc1F
Cc1c(C(=O)N2CCc3ccccc32)oc2c1C(=O)CC(C)(C)C2 > 76.9 µM
Cc1nn(CC(=O)Nc2ccc(C(=O)N(C)C)cc2)c(=O)c2ccccc12 > 76.9 µM
COC(=O)c1ccc(-c2n[nH]c(=O)c3ccccc23)cc1 > 76.9 µM
O=C(NCCc1c[nH]c2ccccc12)c1cccnc1 > 76.9 µM
COc1ccc(C2C(C(=O)NCCN(C)C)c3ccccc3C(=O)N2C)cc1OC (stereo not given) > 76.9 µM
O=C(NCC(c1cccnc1)N1CCOCC1)C1CCCCC1 (stereo not given) > 76.9 µM
CCCCn1c(SCN2C(=O)c3ccccc3C2=O)nc2cc(S(N)(=O)=O)ccc21 > 76.9 µM
COC(=O)[C@H](CCSC)NC(=O)NCc1ccc(S(N)(=O)=O)cc1 > 76.9 µM
O=C(CSc1nnc(-c2cccnc2)n1Cc1ccco1)c1ccc(Cl)cc1 > 76.9 µM
Cc1cc(CNC(=O)c2cc(Br)ccc2Cl)nn1C > 76.9 µM
O=c1c2ccccc2n(Cc2cccc(F)c2)c(=O)n1C1CCCC1 > 76.9 µM
COc1cccc(C(=O)CSc2nnc(CNS(=O)(=O)c3ccc(C)cc3)n2C)c1 > 76.9 µM
CCOc1cc(C(N)=O)cc(OCC)c1OCC > 76.9 µM
CC(NC(=O)c1nn(C)c(=O)c2ccccc12)c1ccc(F)cc1 (stereo not given) > 76.9 µM
Cc1ccc(Cl)cc1-n1c(=O)cc(N2CC(C)OC(C)C2)[nH]c1=O (stereo not given) > 76.9 µM
Cn1c(=O)c2c(nc(SCC(=O)N3c4ccccc4CCc4ccccc43)n2C)n(C)c1=O > 76.9 µM
CCOc1ccccc1/C=c1\sc2ncnn2c1=O > 76.9 µM
O=C(Nc1ccccc1-c1ccccc1)c1ccco1 > 76.9 µM
Cc1[nH]n(CCC#N)c(=O)c1CC(=O)N1CCN(c2ccccc2)CC1 > 76.9 µM
Cc1csc(NC(=O)CCn2c(=O)oc3ccccc32)n1 > 76.9 µM
CSc1nc(N2CCOCC2)c2c3c(sc2n1)CCC3 > 76.9 µM
CCOC(=O)C(CC)Sc1nc2c(c(=O)[nH]c(=O)n2C)n1CCc1ccccc1 (stereo not given) > 76.9 µM
COc1ccc2c(CC(=O)Nc3nnc(C4CC4)s3)coc2c1 > 76.9 µM
O=S(=O)(Nc1nccs1)c1ccc2c(c1)OCCO2 > 76.9 µM
COC(=O)c1ccc(CSc2nc3ccccc3c(=O)n2-c2ccc(OC)c(OC)c2)o1 > 76.9 µM
O=C(O)C1CC(=O)N(C2CCCCCC2)C1 (stereo not given) > 76.9 µM
COCCN(Cc1cc2ccccc2[nH]c1=O)C(=O)c1ccccc1OC > 76.9 µM
COc1cccc(C(=O)Nc2cnc(NC(=O)c3ccco3)cc2C)c1 > 76.9 µM
